Reference: the RNAGym collection of RNA variant scans (doi:10.7554/elife.90254)
Read counts are not given, so values of variants with three or more changes are uncertain.

B1: LINE1-mini (parent)
chain: GGCAGAGCUCAACACAGCGUGGCAAAGUGGCUGUGGCUAGACUGCC

Variants of: B1
Test: self-cleavage, relative activity (ratio to wild type); higher = more cleavage; in vitro, sequencing; the parent is a self-cleaving ribozyme
With GGUAGAGCUAAACACAGCGUGGCAAAGUGGCUGUAGCUAGACUGCC [C3U C10A G35A] the self-cleavage was 0.02. With GGCAGAGCUCAACACAGCGUGGGAGAGUGGCUGUUGCUAGACUGAC [C23G A25G G35U C45A] the self-cleavage was 0.01. Work on AGCAGAGCUCAACACAGCGUGGGGGAGUGGCUGUGGCUAGACUGCC [G1A C23G A24G A25G] yielded a self-cleavage of 0.06. For AGCAGAGCUCAACUCAGCGUGGCAAAGUGGCUGUGGCCAGACUGCC [G1A A14U U38C], the self-cleavage was 0.13. GGCAGAGCUCAAGACAGCGUGGCAAAGUGGCUGUGGCUGGACCGCC [C13G A39G U43C] gave a self-cleavage of 0.02. In the case of GGCAGAGCUCUACACAGCGUGGCAAAGUAGCUGGGGCUAGACUGCC [A11U G29A U34G], the self-cleavage is reported as 0.04. GGCAGAGCUCAGCACAGCAUGGCAAAGUGGCUGUGGCUAGACAGCC [A12G G19A U43A] showed a self-cleavage of 0. For GGCAGUGGUCACGACAGCGUGGCAAAGUGUCUGUGGCUAGACUGCC [A6U C8G A12C C13G G30U], the self-cleavage was 0.03. AGCAGAGCUCAACACAGCGUGCCAAAGUGGGGGCGGCUAGACUGCC [G1A G22C C31G U32G U34C] gave a self-cleavage of 0.08. With GGCAGAGCUAAACACAGCGUGGCAAAGCGUCUGUGGCUAGACUGCC [C10A U28C G30U] the self-cleavage was 0.04. Variant GGCAGCGCUCAACACAGCGUGGCAAAGUCGCUGUGGCUAUACUGCU [A6C G29C G40U C46U] has a self-cleavage of 0.07. Variant GGCUGAGCUCAACACAGCGUAGCGAAGUGACUGGGGCUAGACUGAC [A4U G21A A24G G30A U34G C45A] has a self-cleavage of 0.03. For GGCAUAGCUCAACACUGCGUGGCAAAGUGCCUGUGGCUAGACUGCC [G5U A16U G30C], the self-cleavage was 0.01. Work on GGCAGAGCUCAACACAGCGUGGCAACGUGACUGUGCCCAGACUGCC [A26C G30A G36C U38C] yielded a self-cleavage of 0.08. For GGCAGAGCUCCACACAGCAUGGCAAAGUGGCUGUGGCUGGACUGCC [A11C G19A A39G], the self-cleavage was 0. GGCAGAUAUCAACACAGGGUGGCAAAGUGGCUGAGGCUAGACUGCC [G7U C8A C18G U34A] gave a self-cleavage of 0.11. Work on GGAAGAGCUCAAAGCAGCUUGGCAAAGUGGCUGUGGCUAGACUGCA [C3A C13A A14G G19U C46A] yielded a self-cleavage of 0.24. GGCAAACCUCAACACAGCGUGGCAAAGUGGCUGUGGCUAGACAGCC [G5A G7C U43A] gave a self-cleavage of 0.22. With GGCAGAGCUCAACACAGCGGGGUAAAGUGGCUGUGGGUAGACUCAA [U20G C23U C37G G44C C45A C46A] the self-cleavage was 0.02. Work on GUCAGGCGUCUACACAGCGGGGCAAAGUGUCUGUGGCUAGACAGCC [G2U A6G G7C C8G A11U U20G G30U U43A] yielded a self-cleavage of 0. For GGCAGAGCUAAACACAGCGUGGCAAAGUGGCUGUGACUAGACCGCC [C10A G36A U43C], the self-cleavage was 0.05. Variant GGCAUAGCUCAACACAGCGUGGAUAAGUGGCUGCGGCUGGACGGCU [G5U C23A A24U U34C A39G U43G C46U] has a self-cleavage of 0.01. GGUAGAGCUCAACAUAGCGUGGCAAACUGGCUGUGGCUAGACUGCC [C3U C15U G27C] showed a self-cleavage of 0.08. Variant GGUAGAGCUCGACUCAGCGUGGCAAAGUGGCUGUGGCUAGACCGCC [C3U A11G A14U U43C] has a self-cleavage of 0. For GGCAGAGCUCAACACAGCAUGACAAAGUUGCGGUGGCUAGAAUGCC [G19A G22A G29U U32G C42A], the self-cleavage was 0.03. Work on GGCAGAGCUCAACACAGCGUAGCAAAGUAGCUGUGGCUAGACUGGC [G21A G29A C45G] yielded a self-cleavage of 1.54. With GGUAGAGCUCAACACAGCGUGGCAAAGUGGCUGUGGCUAGUCGGCC [C3U A41U U43G] the self-cleavage was 0.09. GGCAGAGCUCAACACAGCGUAGCAAAGUGGCCCUGGCUAGACUGCC [G21A U32C G33C] showed a self-cleavage of 0.03. GGCAGAACUCUACACAGCGUGGCAAUGUGGCUGUGGCUAGACUGCC [G7A A11U A26U] showed a self-cleavage of 0.07. GGCAGAGCUCAACACAGCGUGGCAAAGUGUCUAUGCCUAGACUGCC [G30U G33A G36C] showed a self-cleavage of 0.2. In the case of GUCAGGGCUCAACCCAGCGUGGCAAAGUGGCAGUGGCUAGACUGGC [G2U A6G A14C U32A C45G], the self-cleavage is reported as 0.02. For GGCAGAGCUAAACAGAGGGUAGCAAAGUGGAUGUGGCUAGACUGCC [C10A C15G C18G G21A C31A], the self-cleavage was 0.01. With GGCAGAGCUCAACACAGGGAGGCAAAGUGGCUGUGGCGAGACUGCG [C18G U20A U38G C46G] the self-cleavage was 0.01. For GGCAGAGCUCAACACAGCGUGGCAAAGUGGUUGUGGCUAGACAGCU [C31U U43A C46U], the self-cleavage was 0.03. For CGCAGAGAUCAACACACCGUGGCAAAUUGGCUGUGGCUAGACUGUC [G1C C8A G17C G27U C45U], the self-cleavage was 0.09. Work on GGCAGAGCACAACAUACCGUGGCAAAGUGGCUGUGGCUAGACUGCC [U9A C15U G17C] yielded a self-cleavage of 0.2. GGCAGAGCUCAACAAAGCGUGGCAAAGUGGCUGUAGCUAGAGUGCC [C15A G35A C42G] gave a self-cleavage of 0.01. Work on GGCAGAGCUCAACACAGCGUGGCAAUGUGGUUGUGUGUGGAUUGCC [A26U C31U G36U C37G A39G C42U] yielded a self-cleavage of 0. Variant GUCAGAGCUCGACACAGCGUGGCAAAGUGGCUGUGGCGAGACUGCC [G2U A11G U38G] has a self-cleavage of 0.01. GGCAGAGCUCAACACAGCGUCGCAACGUGGCUGUGACUAGACUGCC [G21C A26C G36A] gave a self-cleavage of 0.23. Variant GGCAGAGCUCAAAACAGCGUGGCUAAGUUGCUGUGGCUAGACUGCC [C13A A24U G29U] has a self-cleavage of 0.08. In the case of GACUGACCUCAACACAGCAUGGCAAGGUGGCUGUGGCUAGACUGCU [G2A A4U G7C G19A A26G C46U], the self-cleavage is reported as 0.49. GGCAGAGGUCGACACAGCGUGGCAAAGUGGCCGUGGCUAGACUCCC [C8G A11G U32C G44C] showed a self-cleavage of 0.03. In the case of GUCAGAGCUCAACACAGCGUGGCAAAGUGGCCGUGGCUAGACUGCU [G2U U32C C46U], the self-cleavage is reported as 0.03. GGCAGAGCUGCACACAGCGUGGCAAAGUGGCUGUGGCUAGACUGGG [C10G A11C C45G C46G] gave a self-cleavage of 0. With GGAAGAGCUCAACACAGCGUGGCAAAGUGGCUGUGGCUAGAGUGUC [C3A C42G C45U] the self-cleavage was 0.08. Work on GGCAGACCUCAACACAGCGUGGUAAAUUGGCUGUGGCUAGACUGCC [G7C C23U G27U] yielded a self-cleavage of 0.06. In the case of GGCCGAGCUCAAUACAGCGUGGCAAAUUGGCGGUGGCUAGACUGCC [A4C C13U G27U U32G], the self-cleavage is reported as 0.06. For GGCAGAGCUCAACAAAGCGUGGCAAAGUUGCUGUGGCUAGACUGAC [C15A G29U C45A], the self-cleavage was 0. Work on GGCAGAGCUCAACACACCGUGGUAUAGUGGCUGUGGCUAGACUGCC [G17C C23U A25U] yielded a self-cleavage of 1.51. For GGCAGAGCUCCACACAGAGUGCCAAAGUGGCUGUGUCUAGCGUGAC [A11C C18A G22C G36U A41C C42G C45A], the self-cleavage was 0. In the case of GGCAGAGCUAAACACAGCGUGGCAACGUGGCUGUGUCUAGACUGAC [C10A A26C G36U C45A], the self-cleavage is reported as 0. Variant GGCAGAGCUCCACACAUCGUGGCAAAGUGGCUGUGGCUAGACCGCC [A11C G17U U43C] has a self-cleavage of 0.03. For AGCAGAGCUCAACACAGCUUGGCAAAGUGCCUGUGGGUUGAGUGCC [G1A G19U G30C C37G A39U C42G], the self-cleavage was 0.05. GGCAGAGGUCAACACAGCGUGGCCAAGCGGCUGUUGCUAGACUGCC [C8G A24C U28C G35U] gave a self-cleavage of 0.05. GGCAGAGCUAAACAUAGCGUGGCAGAGUGGCUGUGGCUAGACUGGA [C10A C15U A25G C45G C46A] gave a self-cleavage of 0.02.
